In the supplement of paper PMC10338343:
± gives the standard deviation. This is a selection; strong and weak results do not stand in their true shares.

test system: MIWI (PIWIL1) piRISC loaded with L1MC piRNA (30 nt); assay: pre-steady-state target cleavage rate (min^-1); MIWI and MILI are mouse PIWI proteins and EfPiwi is from a freshwater sponge; tags in brackets are library labels; higher = faster piRNA-guided slicing of the target; details: guide: L1MC piRNA 5'p-UAACUAAAUACUAUGCAAGCUGUAGGUCCU; auxiliary factor: 500 nM mouse GTSF1
Method in brief: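 A burst-and-steady-state fit was used to obtain the pre-steady-state cleavage rate. The input data were sequencing reads of uncleaved targets, normalised to depth and to weakly complementary targets, from a […] transcribed, DNA-blocked target RNA library mixed with 1 nM active affinity-purified piRISC holding one synthetic guide, with or without 500 nM GTSF1 partner protein, in HEPES–potassium acetate buffer at 33 °C for 0–8 or 0–960 min. Three trials were pooled and k3 was capped at 0.0001 min^-1.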
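Note: 1 nM active piRISC with 0.1 nM target library at 33 °C single turnover.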

Point of comparison: UCCUGGAUCAGCUUCCUUAGUAUUUAGUUA, “pre-steady-state target cleavage rate” value 0.0311 ± 0.007. Against it:
- UCCUGGAUGUCCUUGCAUAGUAUUUAGAAA — lower, 0.00711 ± 0.0046
- AGGACCUACAGCUUGCAUCAGUAUUUAGUUA — higher, 0.193 ± 0.065
- UCCUGCUACAGCUUGCAUAGAUUUUACAAA — lower, 0.00782 ± 0.0045
- UCCUGGAUGUCGUUGCAUAGUAUUUUAGUUA — lower, 0.00656 ± 0.0039
- UCCUGGAUGUGGUAGCAUAGUAUUUAGUUA — lower, 0.00879 ± 0.0039
- UCCUGGAUGUCCUUGCAUACUAUUUUGUUA — lower, 0.0044 ± 0.0041
- UGGACCUACAGCUUGCAUAGUAAUUAGAAA — higher, 0.259 ± 0.051
- UCGACCUACAGCUUGGUAAGUAUUUAGUAA — within error, 0.0361 ± 0.015
- UCCUCCUACAGCUUGCUAGUAUUUAGUUA — higher, 0.0615 ± 0.017
- UCGACCUACAGCAAGCAUAGUAUUUUCAAA — higher, 0.22 ± 0.039
- UCGACCUACAGCUUGCAUAGUAUUAUGAAA — higher, 0.407 ± 0.059
- UCCUGGAUGUCGAACCUAAGUAUUUAGUUA — lower, < 0.0001
- UCCUGGAUCAGCUUGCAAUGUAUUUAGAAA — within error, 0.0215 ± 0.008
- UGGACCUACAGCUUGCAUAGUUAAUAGUAA — within error, 0.0448 ± 0.01
- UCCUGGUACAGCUUGCAAUGUAUUUUCAAA — lower, 0.00729 ± 0.0039
- AGGACCUACAGCUUGCAUAGUAUAUACAAA — higher, 0.408 ± 0.073
- UCCUGGAUGUCGAAGCAUAGUAUUUGGUUA — lower, 0.00555 ± 0.004
- UCCUGGUACAGCUAGCAUAGUAUUUACAAA — higher, 0.119 ± 0.024
- UCCUGCUACAGCUUGCAUAGUUAUUAGUAA — higher, 0.0808 ± 0.02
- UCCUGGAACUCCUUGCAUAGUAUUUAGAAA — within error, 0.0445 ± 0.014
- UCCUGGUACAGCUUGCAUAGUAUUAUCAAA [g7:g24:cont:t1A] — higher, 0.124 ± 0.024
- UCCUGGUAGAGCUUGCAUAGUAUUUUCAAA — lower, 0.0173 ± 0.0053
- UCCUGGUACAGCUUCGAUAGUAUUUAGAAA — within error, 0.0245 ± 0.0077
- UCCUGGAUGUCCUUGCAUAGUAUUAAGUAA — lower, 0.00616 ± 0.0043
- UCGACCUACAGCUUCCAUAGUAUUUUGUUA — within error, 0.0549 ± 0.02
- UCCUGGAACAGCUUCGUUAGUAUUUAGUUA — within error, 0.0272 ± 0.0057
- UCCACCUAGUGCUUGCAUAGUAUUUACAAA — higher, 0.0829 ± 0.016
- UCCACCUUCAGCUUGCAUAGUAUUUACAAA — higher, 0.304 ± 0.037
- UCCUCCUAGUCCUUGCAUAGUAUUUUCAAA — higher, 0.0767 ± 0.02
- UGGACCUACAGGAUGCAUAGUAUUUUCAAA — higher, 0.136 ± 0.028
- UGGACCUACAGCUUCCAAAGUAUUUAGUUA — higher, 0.439 ± 0.036
- UGGACCUACAGCUUGCAUAGUUAAUACAAA — lower, 0.0147 ± 0.0064
- UCCUGCUACAGCUUGCAUAGUAAAAAGAAA — higher, 0.07 ± 0.02
- UCCUGCUACAGCUUGCAUAGUAUUAACAAA — higher, 0.218 ± 0.035
- UCCACCUACAGCUUGCUAAGUAUUUAGUAA — higher, 0.0952 ± 0.019
- UCCUGGUACAGCUUGCUUAGUAUUUUCAAA — higher, 0.0596 ± 0.018

same assay, conditions: guide: L1MC piRNA 5'p-UAACUAAAUACUAUGCAAGCUGUAGGUCCU; auxiliary factor: none (no GTSF1)

Point of comparison: UCCUCCAACAGCUUGCAUAGUAUUUAGUUA, “pre-steady-state target cleavage rate” value 0.0735 ± 0.013. Against it:
- UCCUGGAUGUCGUUGCAUAGUUUUUACUUA — lower, < 0.0001
- UCCUGGAUGUCGAACGAUAGUAUUUUAGUUA — lower, < 0.0001
